Source: the supplement of paper PMC10300432
Residue numbers refer to the chain shown, from its start. Recombinant human monoclonal antibodies (heavy:light variable regions). ELISA EC50 on the named antigen, from 10 µg/ml down; IC50 against spike pseudovirus on HT1080-ACE2 cells, 48 h; lower = stronger. Calls: IC50 above 1,000 ng/ml = non-neutralizing; EC50 above 1,000 ng/ml = non-binder.

B1: C5036 (protein)
chain 1: QVQLVQSGAEVKKPGSSVKVSCKASGGTFTNFAISWVRQAPGRGLEWMGGIIRLFDSEKYAQKFQGRMTITADESTNTAYMELSRLTFEDTGVYYCARAPPLTLRTTVTISAFDVWGPGTMVTVSS
chain 2: DIVMTQSPDSLAVSLGERATINCKSSQSVLYSSNNKNYLAWYQQKPGQPPKLLIYWASTRESGVPDRFRGSGSGTDFTLTITSLQAEDVAVYYCQHYYGTPLFGGGTKVEIK
B2: C5135 (protein)
chain 1: QVQLQESGPGLVKPSQTLSLTCTVSGGSISSGDYYWSWLRQSPGKGLEWIGYISYSGTTDYNPSLKSRLTISMATSMNQFSLKLSSVTAADTAVYYCARVQGVDSSGNFFQYYFDNWGRGALVTVSS
chain 2: EIVLTQSPGTLSLSPGERATLSCRASLSISSGFLAWYQQKPGQAPRLLIYGASSRATGIPDRFSGSGSGTVFTLTISRLEPEDFAVYYCQQYSGSPLTFGGGTKVEIK
B3: C5136 (protein)
chain 1: QVQLQESGPGLVRPSQTLSLTCTVSGGSISNADYFWSWIRQPPGKGLEWIGYISYSGNTDYKPSLKSRLSMSVETSKNRFSLHLSSVTAADTAVYFCARVQGVDSSGNFFQYYFDHWGQGTLVTVSS
chain 2: B2 chain 2 with G32D, S54N, S66R, V71D, G94F
B4: C5055 (protein)
chain 1: QVQLQESGPGLVKPSETLSLTCTVSGVSISTYYWSWIRQSPGKGLEWIGFLYYSGTTNYNPSLKSRVAISVDTSKNQFSLKLTSLTAADTAVYYCARGRGNCSGGTCYGGDYFDSWGQGTLVTVSS
chain 2: DIQMTQSPSTLSASVGDRVTITCRASQSIGSWLAWYQQRPGKAPKLLIYDASSLESGVPSRFSGSGSGTEFTLTISSLQPDDFATYYCQQYDTYFTFGPGTKVDIK
B5: C5139 (protein)
chain 1: QVQLVQSGSELKKPGASVKVSCKASGYSFTSYALNWVRQAPGQGLEWMGWINTNTGIPTYAQGLTGRFVFSLDTSVSTAYLQISSLEAVDTAVYYCSRERYSNSWYLPEIYDYWGQGTLVTVSS
chain 2: EIVMTQSPATLSVSPGERATLSCRASQSVSSNLAWYQQKPGQAPRLLIYGASTRATGIPARFSGSGSGTEFTLTISSLQSEDFAVYYCKQYSSWPTFGQGTKLEIK
B6: C5137 (protein)
chain 1: QVQLVQSGAELKKPGASVKVSCKTSGYTFDRYGLSWVRQAPGQGLEWLGWISAKNGDTKSVQKLQGRVTMTTDTFTNTAYLELRSLRSDDSAVYYCARVLFYYDRSGNYLPEDYFDYWGQGTLVTVSS
chain 2: QSVLTQPPSVSGAPGQRVTISCTGSSANIGAGYDVHWYQQLPGTAPRLLIYGNTNRPSGVPDRFSGSKSGTSASLAITGLQAEDEGDYYCQSYDSSLSALYVFGTGTKVTVL
B7: C5134 (protein)
chain 1: QVQLVESGGGVVRPGRSLRLSCAASGFTFSDYVIHWVRQAPGKGLEWVAAISSDGKIKDYGDSVKGRFIISRDNSKNTLYLQMNSLRHEDTAVYYCARDSRQIVDYLDYWGQGTLVTVSS
chain 2: DIQMTQSPSSLSASVGDRVTITCRASQTISNYLNWYQQTPGKAPKLLVYAATSLQTGVPLRFSGSGSGTSFTLTISSLQPEDFATYYCQQTYTTPQTFGQGTKVEIK
B8: C5328 (protein)
chain 1: EVQLVESGGGLVQPGGSLRLSCAASGITFSRYWMHWVRQAPGKGLVWVSRINSDGSIRSYADSVKGRFTISRDNAKNTLFLQMNSLRAEDTAVYYCARDLTYGGNVDYWGQGTLVTVSS
chain 2: NFMLTQPHSVSESPGKTVTISCTGSGGSIASNYVQWYQQRPGSAPTTVIYEDNQRPSGVPDRFSGSIDSSSNSASLTISGLKTEDEADYYCQSYDGSIHVVFGGGTKLTVL
B9: C5138 (protein)
chain 1: QVQLVESGGGVVQPGRSLRLSCAASGFTFANYGMHWVRQAPGKGLEWVAVISFDGSDTYYADSVKGRFTISRDNSKNRLYLQMNSLRPEDTALYYCAKGEWYASSWFGVFFDYWGQGTLVTVSS
chain 2: EIVMTQSPTILSVSPGERATLSCRASQNVSNNLAWYQQKPGQAPSLLIYDASTRATGFPARFSGSGSGTEFTLTVSSLQSEDFAVYYCQQYTKRPYTFGQGTKLEIK

Experiments:
[1] = target: SARS-CoV-2 Omicron BA.1 spike pseudovirus; assay: pseudovirus neutralization IC50; higher = weaker neutralization
Experimental: (§1)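 Single-round luciferase reporter pseudovirus mixed with antibody dilutions and put on HT1080-ACE2 clone 14 cells for 48 h; signal relative to no-antibody wells, four-parameter fit.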

[2] = target: SARS-CoV-2 Omicron BA.4/5 spike pseudovirus; assay: as above
Experimental: as §1

[3] = target: SARS-CoV-2 Wuhan-Hu-1 spike pseudovirus; assay: as above
Experimental: as §1

[4] = target: SARS-CoV-2 Wuhan-Hu-1 spike receptor-binding domain; assay: ELISA binding EC50; higher = weaker binding; ELISA of recombinant human antibody on coated antigen, from 10 µg/ml in fourfold dilutions; four-parameter fit.

| Binder | pseudovirus neutralization IC50 [1] | pseudovirus neutralization IC50 [2] | pseudovirus neutralization IC50 [3] | ELISA binding EC50 [4] |
| --- | --- | --- | --- | --- |
| B1 | > 1 µg/mL | > 1 µg/mL | 0.00168 µg/mL | 0.00456 µg/mL |
| B2 | 0.39 µg/mL | 0.524 µg/mL | 0.401 µg/mL | 0.00299 µg/mL |
| B3 | 0.0256 µg/mL | 0.0872 µg/mL | 0.0535 µg/mL | 0.00371 µg/mL |
| B4 |  | 0.351 µg/mL | 0.00236 µg/mL | 0.00332 µg/mL |
| B5 | > 1 µg/mL | > 1 µg/mL | > 1 µg/mL | 0.0116 µg/mL |
| B6 | 0.744 µg/mL | 0.716 µg/mL | 0.141 µg/mL | 0.00344 µg/mL |
| B7 | > 1 µg/mL | > 1 µg/mL | > 1 µg/mL | 0.0054 µg/mL |
| B8 |  |  |  | 0.00572 µg/mL |
| B9 | > 1 µg/mL | > 1 µg/mL | > 1 µg/mL | 0.0181 µg/mL |
